This data set in a line: soluble fraction after stress (log2 fold change); higher = more stays soluble; pooled small domains, quantitative proteomics. The settings on record: stress: 75 degC.

From the domain aggregation screens of Martell et al. (2025) come the findings set out here.
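Note: 20 min heating vs room temperature control held 20 min.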

As to “HMRRLQTIVYEKGLASTIKQARQMITHGHIFMNGHRVTVPGYLVTRAEESSIEFNPASPFTDEMHPM”, the “soluble fraction (log2)” value is -2.07.

With “HMEGHVLRSPMVGTFYASSAPDKPAFVSVGQQVKEGETLAIIEAMKMFNPIEADKSGTIVAILG”, the “soluble fraction (log2)” value was found to be 0.635. The value for “HMEETALAIGREVGYPVIIKAAGGGGGRGMRVVRNEAELAAAIALTKSEAGQFFKNDMVYMEKYL” was 0.219.
